In PubChem BioAssay AID1745853 (National Center for Advancing Translational Sciences (NCATS), 2022):
Several values for one entry are separate records, joined by “and”; a condition that tells them apart may be missing. Equal entries are not always repeated. This is one part of the list. These are further read-outs of the screen, such as a control signal, another cell line or another target. No call is given for them.

Columns and labels:
Experiment in all cases: Primary Screen for Target Class Profiling of Small Molecule Inhibitors of Methyltransferases
[1] = biological target: Glycine N-methyltransferase (Homo sapiens) (UniProt Q14749); conditions: purified enzyme, MTase-Glo SAH luminescence; measured here: GNMT inhibition; at 40 µM; stronger effect = lower value
In short: (§1)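 Each enzyme was reacted with SAM and its substrate, with compounds tested once at 40 uM; SAH formed was read by MTase-Glo luminescence.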

[2] = biological target: Guanidinoacetate N-methyltransferase (Homo sapiens) (UniProt Q14353); conditions: purified enzyme, MTase-Glo SAH luminescence; measured here: GAMT inhibition; at 40 µM; stronger effect = lower value
In short: as §1

[3] = biological target: Histamine N-methyltransferase (Homo sapiens) (UniProt P50135); conditions: purified enzyme, MTase-Glo SAH luminescence; measured here: HNMT inhibition; at 40 µM; stronger effect = lower value
In short: as §1

[4] = biological target: Nicotinamide N-methyltransferase (Homo sapiens) (UniProt P40261); conditions: purified enzyme, MTase-Glo SAH luminescence; measured here: NNMT inhibition; at 40 µM; stronger effect = lower value
In short: as §1

[5] = biological target: Phenylethanolamine N-methyltransferase (Homo sapiens) (UniProt P11086); conditions: purified enzyme, MTase-Glo SAH luminescence; measured here: PNMT inhibition; at 40 µM; stronger effect = lower value
In short: as §1
% is scaled to controls: 0 for no effect and ±100 for the full control effect.

Compound	activity change, negative = inhibition [1]	activity change, negative = inhibition [2]	activity change, negative = inhibition [3]	activity change, negative = inhibition [4]	activity change, negative = inhibition [5]
CC(C)CCNC(=O)C1(C)Cn2c(c(-n3cccc3)c3ccccc32)C(=O)N1Cc1ccco1 (stereo not drawn)	7.5%	0.223%	4.54%	4.81%	3.06%
CCCCCCCCCCC(O)C1C=CC2C(=O)N(c3ccccc3)C(=O)C2N1Nc1ccc([N+](=O)[O-])cc1 (stereo not drawn)		-14.3%		-30.2%	-6.79%
O=C1COc2ccc(-c3cccc(O)c3)nc2CN1Cc1ccc(C(F)(F)F)cc1	-67.4%	-61.5%	-75%	-64.7%	-50.5%
C[C@@H]1C[C@H](O)/C=C/[C@H](O)[C@@H](O)CC(=O)O1	-0.637%	-4.07%	-5.38%	-14.7%	-1.53%
Cc1ccc(CN2CCC3(CC2)CCN(Cc2ccco2)CC3CO)s1 (stereo not drawn)	-0.775%	-1.98%	-4.72%	-4.58%	1.36%
CCCn1c(=O)c2ccccc2n2c(=O)n(Cc3ccccc3)nc12	1.5%	0.224%	8.75%	-1.69%	5.67%
O=C(COc1ccc(F)cc1)N1CCCN(c2cc(-c3ccc(Br)cc3)[nH]n2)CC1	-13.5%	-9.61%	-7.54%	-17.4%	-15.5%
Cc1onc(C(=O)N2CCN(C(c3ccc(Cl)cc3)c3ccc(Cl)cc3)CC2)c1[N+](=O)[O-]	-4.12%	-36.7%	-1.92%	-38.3%	-17.3%
COc1ccc(CNC(=O)C2(C)Cn3cnc(C(=O)NCCc4ccc(C)cc4)c3C(=O)N2C2CC2)cc1 (stereo not drawn)	3.3%	3.94%	14.6%	3.92%	7.93%
CCOc1ccc(C(=O)N2CCC(n3cc(-c4nc(CC)no4)nn3)C2)cc1 (stereo not drawn)	-1.9%	1.35%	2.96%	0.106%	2.7%
C=CCn1c(=O)c2ccc(C(=O)NC(C)CC)cc2n2c(=O)n(CC(=O)Nc3cccc(F)c3)nc12 (stereo not drawn)	0.872%	0.272%	1.3%	1.08%	2.04%
CC(C)Cn1c(=O)c2ccccc2n2c(SCC(=O)Nc3ccc4c(c3)OCO4)nnc12	-7.74%	4.6%	2.86%	-5.64%	3.38%
CCC(C)N1C(=O)c2ccccc2CC1(C)C(=O)NC1CCCCCCC1 (stereo not drawn)	-2.01%	0.102%	8.78%	6.91%	2.4%
CN(C)C/C=C/C(=O)Nc1cccc(C(=O)Nc2ccc(Nc3nccc(-c4cccnc4)n3)cc2)c1	-92.1%	16.3%	-70.3%	-3.69%	2.02%
Fc1cccc(-c2nnn3c2nc(NC2CCCCC2)c2ccccc23)c1	-6.87%	-0.484%	-9.1%	-15.1%	-15.8%
O=[N+]([O-])c1cccc2c(Br)[nH]nc12	-61.4%	6.7%	10.3%	-22.1%	-20.5%

Compound	activity change, negative = inhibition [1]	activity change, negative = inhibition [2]	activity change, negative = inhibition [3]	activity change, negative = inhibition [4]	activity change, negative = inhibition [5]
CC1(C(=O)NC2CCCCCCC2)Cn2c(ccc2-c2ccco2)C(=O)N1CCc1cccs1 (stereo not drawn)	-7.12%	4.45%	1.73%	-9.3%	-2.68%
Cc1ccc(CN2CC(Oc3cccc(C(=O)N4CCOCC4)c3)C2)s1	-1.03%	0.89%	-3.63%	-1.57%	2.04%
CCOc1cccc(C2c3cccn3-c3sc4c(c3CN2C(=O)Nc2ccccc2OC)CCCC4)c1 (stereo not drawn)	2.73%	1.51%	6.59%	-2.07%	7.66%
NC(N)=N/N=C/c1ccccc1Cl	-0.236%	-2%	-23.7%	-14.4%	-3.41%
O=[N+]([O-])c1ccc(CNc2nc(NCc3cccc(C(F)(F)F)c3)nc3nc[nH]c23)cc1	-15.3% and 0.107%	5.29% and 5.59%	-5.64% and -2.9%	-41.6% and -56.6%	-1.21% and -5.37%
COc1cc(C)c(Sc2cnc(NC(=O)c3ccc(CNC(C)C(C)C)cc3)s2)cc1C(=O)N1CCN(C(C)=O)CC1 (stereo not drawn)	-13.4%	8.36%	-33%	-13.9%	-5.62%
Cc1ccc(Cn2c(=O)c3ccc(C(=O)NC(C)C)cc3n3c(=O)n(CC(=O)NC4CCCC4)nc23)cc1	1.92%	0.284%	2.88%	-2.11%	-1.3%
CCCn1c(=O)c2ccc(C(=O)NC(C)CC)cc2n2c(=O)n(CC(=O)NC3CCCC3)nc12 (stereo not drawn)	-3.43%	0.911%	-3.11%	-12%	-12.8%
Cc1ccc(CN2C(=O)c3cc4oc(C)cc4n3CC2(C)C(=O)NC2CCCCCC2)cc1 (stereo not drawn)	-9.52%	3.86%	-6.84%	-7.63%	-16.2%
Cc1cccc(-c2ncc(CN(CCC(N)=O)Cc3ccccc3)cn2)c1	-5.05%	-4.84%	-3.13%	-4.93%	-12.4%
COc1cc(CN(CCN)C(=O)c2cccs2)ccc1OCc1ccccc1	-10.4%	-4.4%	-19.3%	-15%	-1.14%
CC(C)Cn1c(=O)c2ccc(C(=O)NC(C)C)cc2n2c(SCC(=O)NC(C)C)nnc12	9.11%	0.676%	8.56%	10.7%	10.3%
C[C@@H]1O[C@@H](O[C@H]2[C@H](OC(=O)[C@]34CCC(C)(C)C[C@H]3C3=CCC5[C@@]6(C)C[C@H](O)[C@H](O[C@@H]7O[C@H](CO[C@@H]8OC[C@H](O)[C@H](O)[C@H]8O)[C@@H](O)[C@H](O)[C@H]7O)C(C)(C)C6CC[C@@]5(C)[C@]3(C)C[C@H]4O)OC[C@@H](O)[C@@H]2O)[C@H](O)[C@H](O[C@@H]2OC[C@](O)(CO)[C@H]2O)[C@H]1O[C@@H]1OC[C@H](O)[C@H](O[C@@H]2OC[C@@H](O)[C@H](O)[C@H]2O)[C@H]1O (stereo partly drawn)	4.2%	13.1%	11.8%	2.8%	11.1%
CCN(CC)CCN1C(=O)c2ccc(-c3ccco3)n2CC1(C)C(=O)NC1CCCCCC1 (stereo not drawn)	2.19%	6.76%	7.37%	7.11%	1.34%
COc1ccc(OCC2CN(CC3CC3)[S+](=O)([O-])c3cnccc3O2)cc1 (stereo not drawn)	-6.25%	-4.44%	-2.04%	-7.95%	-3.19%
